We go through 22 molecules from paper PMC12136788.

Some of the results follow.

The labels stand for the following.
T1: UNK ZnF1-3 (human, UniProt Q9C0B0 31-174)
T1 sequence: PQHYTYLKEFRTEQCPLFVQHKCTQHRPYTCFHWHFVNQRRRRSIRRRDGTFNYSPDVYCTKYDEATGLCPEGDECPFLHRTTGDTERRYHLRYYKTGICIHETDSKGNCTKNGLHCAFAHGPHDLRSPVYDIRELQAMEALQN

B1: chr1:109605286:109605287:-_ENSG00000197780_ENST00000461096|hu_mus|hu_hu_hu_mus_True|18_18 (ssRNA)
RNA: GGGAGUUCUACAGUCCGACGAUCAAGUUUCAGAGUAACAUUCAGUAACCUCUUUAAAUGCAAUUAUCCUUAUUAUAAGCUAAGCAGAAUAAUAAUUUAAUACCGUAAGUGAACUACCACAAAACCUUGAACCGCGAAAAUGGUCAACAGAGGAUUGAGCAUCA
B2: chr10:1038518:1038519:+_ENSG00000107937_ENST00000545048|hu_hu|hu_hu_hu_mus_False|48_108 (ssRNA)
RNA: GGGAGUUCUACAGUCCGACGAUCCAGUCUAUCAUGGUAAUUCUGUUGAGUAAAUUUGACUUUUCUCAUAUAAAAAUGUCGAAUCCGAUGUAUUUGGUAAUGUUUAUGAAUAACCGUUGGAGUCUUUCGUUGAGUCUUGGAUAACAACAGAGGAUUGAGCAUCA
B3: chr13:104551264:104551265:-_ENSMUSG00000032621_ENSMUST00000074616|mus_mus|FALSE|FALSE (ssRNA)
RNA: GGGAGUUCUACAGUCCGACGAUCUCCAAGUGUUGUAAUAUUUGGGUCCAGCGCUGCUGCUGGGAUAGCUCCCAAACUGCUAAGUGAAACACCAAGACUACUCACUGCCGUCAGAGGACUGGAGGUUGGGAUGGGAAGCAACCCCAACAGAGGAUUGAGCAUCA
B4: chrX:71549762:71549763:+_ENSMUSG00000019087_ENSMUST00000019231|mus_mus|mus_mus_mus_hu_False|78_88 (ssRNA)
RNA: GGGAGUUCUACAGUCCGACGAUCAAACCCGUGUACUUCUUAUUGUUACAUCACCCCUCCCCCCCAACGAUAACGACAGCCAAGCAGGACAGACAGUUAAGUAGUACUUCCACACUCCCAAACUCAGGGAGCCCUAUAACCUUACAACAGAGGAUUGAGCAUCA
B5: chr12:21919153:21919154:-_ENSG00000121361_ENST00000240662|hu_mus|FALSE|FALSE (ssRNA)
RNA: GGGAGUUCUACAGUCCGACGAUCAUACAGGGGGCUACGCUUGUCAAUCACGUGGCAGAUGAUCAAUGGGGCCACUAGGAAGAUAUUAUUGCUCUCGAUGGGAUUAUCAACAGGAAUGUCCUGCUGAUGAAUAGGCACCACCUCCAACAGAGGAUUGAGCAUCA
B6: chr3:176767854:176767855:-_ENSG00000177565_ENST00000430069|hu_hu|hu_hu_hu_mus_False|48_108 (ssRNA)
RNA: GGGAGUUCUACAGUCCGACGAUCGACAUCCUUGUUGCUGGGCACGUCCUGCCCUCCUUCCCGUAUGCAGUGUCUAAGCACGAGCUGUGUAGAGCCACUCGUGCUGUUCUCACUGAGGUUCCAGAUUCUUGCCGUGGAGUCUCCCAACAGAGGAUUGAGCAUCA
B7: 94532752_94532872_597_3pUTR_ENSG00000166025_ENST00000433060|human|control|control (ssRNA)
RNA: GGGAGUUCUACAGUCCGACGAUCCAUCACCGUAUUGUCCACCUGGUGUUCUUGACCCUGCGGUUCUUGGCGUGCUGACUGGUAGACCAUUUGUGGGUCUUCUUGAGUGAGGUUUUCCGUGGAAGAAAAGUUGUUUGUAGGAUGCAACAGAGGAUUGAGCAUCA
B8: 93635196_93635316_265_5pUTR_ENSMUSG00000063015_ENSMUST00000058550|mouse|control|control (ssRNA)
RNA: GGGAGUUCUACAGUCCGACGAUCGGCCCGAGGCCGCCGCCGCCGGUCCCGCUCCUCCGACCGCCGCCGCUGGUGCCCGGGUGAGGAGGGGGCGCCCUCUCGCCAUAGGGCGGCGGGGGCCGGGGAGAGGCGCGGGGUGAGGCCCAACAGAGGAUUGAGCAUCA
B9: chr16:94690422:94690423:+_ENSMUSG00000040785_ENSMUST00000117648|mus_hu|FALSE|FALSE (ssRNA)
RNA: GGGAGUUCUACAGUCCGACGAUCUGUGACCAGAAUUCAUGGUUCUAUAUUUACCACUGUCUAAAAGUCACAAAACAAUAUCUAAUUUUUUCAUGGUUUCUAAUGCAGUUACAGUUUUGUUCUUAGGUCACAGUACAAGACUGCCAACAGAGGAUUGAGCAUCA
B10: chr11:29608523:29608524:+_ENSMUSG00000020458_ENSMUST00000102843|mus_mus|FALSE|FALSE (ssRNA)
RNA: GGGAGUUCUACAGUCCGACGAUCACUUUUGGAGAAUUCAUCUGAGACAUGUGCUUCAUCUUUAGGAUAUGUAUUCUUGAAAGAAAGGUCACAGGGCAAUUCUGAGCAAGGCAACGAAUUGGCCCCGCUCUGGACAUUAGCAAUCAACAGAGGAUUGAGCAUCA
B11: chr11:113085134:113085135:+_ENSG00000149294_ENST00000316851|hu_hu|FALSE|FALSE (ssRNA)
RNA: GGGAGUUCUACAGUCCGACGAUCGGUGAUGGAGGGAAUGGGGUCUCCGGAGGCUUCACAGGUAAGAGUGACCUGCUCCUCUAAUUCCAUGGCAGUCUGGUUCUCUACAUAUGUGAUUUUGGGUUUUGCAAAGACUUUGAGGUGCAACAGAGGAUUGAGCAUCA
B12: chr20:52835626:52835627:+_ENSG00000101132_ENST00000441080|hu_hu|FALSE|FALSE (ssRNA)
RNA: GGGAGUUCUACAGUCCGACGAUCAGCUUCAAGGUUUAUGUUGCUCCCGAAUUUUGCAUACAACUGAACUUUCAAAUCUGCUAACACUCGCUGAAUUGAUUCCACUCUGGAUUCUAAGGCGUCAAUUUCUUCUUGCAAAUUUUUCAACAGAGGAUUGAGCAUCA
B13: chr8:41367971:41367972:+_ENSG00000147533_ENST00000520817|hu_mus|FALSE|FALSE (ssRNA)
RNA: GGGAGUUCUACAGUCCGACGAUCGCAACAUACUGUAUUAUUUCUACCAAUUUUUUCUCCUAAGUUAUACUUGUAACAAAACUAGAGUUAGGUGCUUAGGACACUUGCUUCUUCCACACCGGGCAGAGCUGGGGCAGGUGGAGCCAACAGAGGAUUGAGCAUCA
B14: chr18:25636641:25636642:-_ENSMUSG00000024268_ENSMUST00000025117|mus_hu|motif|central (ssRNA)
RNA: GGGAGUUCUACAGUCCGACGAUCCAUUUACCAAAGAUAAAUAUCGUGCUUUCAUUAAAUAGUUUUCCUUGUUUUUUUCUCGGUCAUUACAAUUAAAAGUCCUACAAAAUAUGCAAAUUUAUUUACAGAAAAACAGAGCCGGCACAACAGAGGAUUGAGCAUCA
B15: chr7:54825262:54825263:-_ENSG00000132432_ENST00000352861|hu_hu|hu_hu_hu_mus_False|8_88 (ssRNA)
RNA: GGGAGUUCUACAGUCCGACGAUCCUGCCGGCUGGGCUCCACAAACUUUACCUGAUCAUCCAUGUUUGUUGGAUGGCGGAUUGAGAGCGUAGAGACACGUAGCUCAGGAGAGAACCGAGCCCAACGGCACCGGAACCUGGCAACCAACAGAGGAUUGAGCAUCA
B16: chr10:75239141:75239142:-_ENSG00000107758_ENST00000394829|hu_hu|motif|central (ssRNA)
RNA: GGGAGUUCUACAGUCCGACGAUCUACUUCUAUCAUGGUUUUCUCUCUCCGAAGGAUGGCAGCACCCUCAUUGAUAAUUCGGAGCGCAAUUUCUUCAUCUACUCGACCUUCUUUCACCAAGUGGUUCUUCAGAACAUCAACCCUCAACAGAGGAUUGAGCAUCA
B17: chr4:25749455:25749456:-_ENSG00000091490_ENST00000264868|hu_hu|hu_hu_hu_mus_False|68_108 (ssRNA)
RNA: GGGAGUUCUACAGUCCGACGAUCGCAAGCACUAGGAUAGAAAAAUCCACAGGGGGAAAAAAUGUAAACCAAUUUACAAUGUUAUCGCCUUCCCUGUGUGUGGAGUGUUUGUCUCAAGGCUCCUUCUAGCUGCUGGAUUUGGGACAACAGAGGAUUGAGCAUCA
B18: chr10:61147818:61147819:+_ENSMUSG00000020088_ENSMUST00000020285|mus_mus|motif|central (ssRNA)
RNA: GGGAGUUCUACAGUCCGACGAUCUAGUCUGUCAUCUUUCAGCAUGUGAAGAAGAGUGGUUUUGCCCGCAUUGUCCAAUCCGGAGAAUACAAGUUUUCCAGAUUUCUUGUAGAGUCCUAGGAACUGGAGCACACUGCUGAAGCCCAACAGAGGAUUGAGCAUCA
B19: chr15:59387643:59387644:+_ENSG00000157450_ENST00000557998|hu_mus|motif|central (ssRNA)
RNA: GGGAGUUCUACAGUCCGACGAUCAAGGGCGGUACUUAACUCAGAAUUCCAUAUUGUAAAUAUACAGCAGCCAUUUUGUCCGGAUUUAAUUAAGGAAUGUCUUAAUACACAAUAUCAUUUCCUAGAAAAUCUUUAUACAUUAAACAACAGAGGAUUGAGCAUCA
B20: chr10:126501906:126501907:+_ENSMUSG00000006728_ENSMUST00000133115|mus_mus|FALSE|FALSE (ssRNA)
RNA: GGGAGUUCUACAGUCCGACGAUCCUUCAGGUCCCGGUGAACAAUGCAGUUUGCAUGAAGAAAAUCCAGGCCGCUUAGAAACUGACGCAUUAGAUCCUUAAUGGUCUCAACCGGCAGGCCCGGUGGAGGUGCUUUGUCCAGGUACAACAGAGGAUUGAGCAUCA
B21: chr4:115894766:115894767:+_ENSMUSG00000028698_ENSMUST00000030464|mus_hu|mus_mus_mus_hu_True|28_48 (ssRNA)
RNA: GGGAGUUCUACAGUCCGACGAUCUUCCACACGGAAAUGUACUUCGGGUUUUCCAACGGCCAGUACCAGUCCGGCCAAACUACCCGAUGAGGACAAGCCCCCUCUCUUCUCUCCUCCACAACAAAAUGCCCCCGAACUUUCAAGCAACAGAGGAUUGAGCAUCA
B22: chr4:138660994:138660995:-_ENSMUSG00000050608_ENSMUST00000143971|mus_mus|motif|central (ssRNA)
RNA: GGGAGUUCUACAGUCCGACGAUCAAAGUCAUGCUGACAGUUGGAGUAGGCCAUUCCCAAUCCCACGCCAGAACCAAAGGCGGAUGGCCACAUUCUUCUCUUAAAGAAGGUGAGGGAGAAAACAAUUCCUAAUCCAAACCCAGUCAACAGAGGAUUGAGCAUCA

The assay addresses T1, UNK ZnF1-3. Description: nsRBNS (natural sequence RNA bind-n-seq); RBNS binding buffer (assumed for nsRBNS): 25 mM Tris pH 7.5, 150 mM KCl, 3 mM MgCl2, 0.01% Triton X-100, 500 ug/ml BSA, 20 U/ml SUPERase-In, 4 C; UNK is unkempt and MSI1 is Musashi-1; names of the RNAs are library labels; protein concentration not given here; high values mean tight binding.
B1: the binding signal is 0.713 enrichment R.
Molecule B2 came in with a binding signal of 0.543 enrichment R.
With B3 the figure was 1.28 enrichment R.
B4 registered a binding signal of 1.83 enrichment R.
On to B5, for which the binding signal was 1 enrichment R.
For B6, the binding signal was 0.536 enrichment R.
Then B7, with 0.702 enrichment R; and B8, with 0.942 enrichment R; and B9, with 0.309 enrichment R.
With B10 the figure was 0.774 enrichment R; with B11, 0.9 enrichment R; with B12, 1.13 enrichment R.
With B13 the figure was 1.03 enrichment R; with B14, 0.782 enrichment R; with B15, 1.13 enrichment R.
Regarding B16, the binding signal turned out to be 1.06 enrichment R.
Then B17, with 1.14 enrichment R; and B18, with 1 enrichment R.
With B19 the figure was 1.18 enrichment R; with B20, 1.14 enrichment R.
B21 gave a binding signal of 1.03 enrichment R.
For the molecule B22, the binding signal turned out to be 1.17 enrichment R.
